Experimental data reported in the supplement of paper PMC3334620.
Whole data set: some 33,000 sequences, median “E-score (-0.5 to 0.5)” near -0.04, cut for the highest 2% near 0.36. Some of the results follow.

The sequences below were run against T1, Hmlalpha2 (UniProt P0CY09) (assay: PBM E-score (8-mer binding enrichment) (E-score (-0.5 to 0.5)); higher = stronger / more preferred TF binding; most listed sequences are background and not binding sites). Settings: protein concentration: 200 nM; construct: GST-full length.
T1 sequence: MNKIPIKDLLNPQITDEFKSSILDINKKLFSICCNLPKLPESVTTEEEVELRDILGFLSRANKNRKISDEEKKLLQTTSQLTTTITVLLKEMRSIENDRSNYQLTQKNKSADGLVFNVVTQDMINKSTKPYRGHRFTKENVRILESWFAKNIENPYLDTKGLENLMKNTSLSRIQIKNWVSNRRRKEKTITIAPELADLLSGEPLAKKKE
Outline: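 Full-length yeast transcription factors or their DNA-binding domains, GST-tagged and expressed with PURExpress, were applied at about 100-200 nM to universal all-10-mer Agilent arrays. These arrays had been made double-stranded by primer extension on fresh or once-stripped slides. Detection used fluorescent anti-GST, normalisation used masliner, and E-scores for ungapped eight-base words pooled with reverse complements came from the Universal PBM Analysis Suite.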

Row | Sequence | PBM E-score
1 | TCGTAAAA | 0.237
2 | CGATTATC | -0.0707
3 | AAACAACA | 0.367
4 | ATAATTTG | 0.088
5 | ACGCCACC | -0.207
6 | TCTGAAGA | -0.288
7 | TCTCTGCA | -0.196
8 | CGGGGATA | -0.149
9 | CCACATCG | -0.0429
10 | AAGTTGTA | 0.212
11 | AAGGGTCG | 0.044
12 | CGCATCCA | -0.0106
13 | GTAGTGAC | 0.0202
14 | GGCTGTAA | 0.0946
15 | CATCGACG | -0.109
16 | AGGCATTA | -0.149
17 | AGATCTCA | -0.0072
18 | GCTCGATA | -0.0994
19 | CGGGGTCC | -0.218
20 | GAGAACGA | -0.0321
21 | GCCGTTGA | -0.0609
22 | GCTTATGA | -0.00062
23 | GGCCATGA | -0.217
24 | GTTGTACA | 0.424

Row | Sequence | PBM E-score
25 | ACTGTCAC | -0.12
26 | CAGGGTTA | -0.0331
27 | AGACATCA | -0.0598
28 | AGGTGTTA | 0.256
29 | CGACGTCC | -0.0809
30 | ACGACGCT | -0.183
31 | GCTCGAGA | -0.169
32 | CCCGTTAA | -0.0105
33 | ACAATAAA | 0.027
34 | ATAGCTAC | -0.00922
35 | AACATTGG | 0.165
36 | TCACTGAA | -0.0881
37 | AAAACTCG | 0.225
38 | CATCTCTC | -0.145
39 | AGATGGAT | -0.265
40 | AGTCGTTC | 0.103
41 | CACCTCGA | -0.0332
42 | ACTCAAAA | 0.093
43 | CCTGCGCC | -0.269
44 | ATTCTTAC | 0.238
45 | CCCAGGTC | -0.261
46 | ATTAGAGG | -0.157
47 | ATATAGAC | 0.258
48 | CACCGTAA | -0.0324

Row | Sequence | PBM E-score
49 | CCCCAGAC | -0.368
50 | ACGCAACG | 0.286
51 | GGAAATAC | 0.154
52 | AGCGTTAC | 0.00608
53 | AGAACGGA | -0.0269
54 | AGTCCGAC | -0.126
55 | ATGGAGAA | -0.0153
56 | ATCCGTAG | -0.309
57 | TAAGATGA | 0.0487
58 | CTGCAATC | -0.107
59 | GACAATAC | 0.211
60 | CTGTCAGA | -0.135
61 | CCTCGACA | 0.0653
62 | CTACAGTA | 0.0622
63 | CAGCCACC | -0.181
64 | GTGAGGTA | -0.0193
65 | CTCAGACC | -0.166
66 | AGTAATAT | 0.245
67 | CACAAAAG | 0.0681
68 | CAGGGCTC | -0.275
69 | CTAATCGC | -0.00515
70 | CGAGAAAA | -0.103
71 | GCGCTACC | -0.202
72 | AAGAAGCA | 0.0176

Row | Sequence | PBM E-score
73 | TTATCAAA | 0.182
74 | GCGAGGCA | -0.14
75 | TATGAACA | 0.261
76 | AAGACGCT | -0.212
77 | ATTTAATA | 0.316
78 | AAATGGAA | -0.0973
79 | ATTGCGGA | -0.0134
80 | CCGCAAGG | -0.153
81 | CTAACGCA | 0.179
82 | GAGTCCAC | -0.308
83 | ACTCGAAT | -0.0605
84 | CGTAGCGA | -0.114
85 | ATTTTGTA | 0.202
86 | CACACGAG | 0.152
87 | ATTCTCCG | -0.172
88 | AAACACGA | 0.383
89 | AGATTATA | 0.0149
90 | CAGCTTCA | -0.00309
91 | TCAGCGAA | -0.0617
92 | CGCGACCA | -0.00552
93 | GGTGGGTA | -0.163
94 | ATCCTTCG | -0.151
